Out of some 310,000 compounds screened, about 14,000 (4.5%) showed an effect of 50% or more. The effect is printed as a negative number. Some of the results follow.
Each compound was assayed against human ether-à-go-go-related gene (hERG) potassium channel (human, UniProt Q12809) (assay: primary screen, population patch clamp on CHO cells stably expressing hERG).
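Note: peak tail current of the secondary pulse compared with the same well before compound.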

Sequence of human ether-à-go-go-related gene (hERG) potassium channel (Q12809 whole entry, looked up): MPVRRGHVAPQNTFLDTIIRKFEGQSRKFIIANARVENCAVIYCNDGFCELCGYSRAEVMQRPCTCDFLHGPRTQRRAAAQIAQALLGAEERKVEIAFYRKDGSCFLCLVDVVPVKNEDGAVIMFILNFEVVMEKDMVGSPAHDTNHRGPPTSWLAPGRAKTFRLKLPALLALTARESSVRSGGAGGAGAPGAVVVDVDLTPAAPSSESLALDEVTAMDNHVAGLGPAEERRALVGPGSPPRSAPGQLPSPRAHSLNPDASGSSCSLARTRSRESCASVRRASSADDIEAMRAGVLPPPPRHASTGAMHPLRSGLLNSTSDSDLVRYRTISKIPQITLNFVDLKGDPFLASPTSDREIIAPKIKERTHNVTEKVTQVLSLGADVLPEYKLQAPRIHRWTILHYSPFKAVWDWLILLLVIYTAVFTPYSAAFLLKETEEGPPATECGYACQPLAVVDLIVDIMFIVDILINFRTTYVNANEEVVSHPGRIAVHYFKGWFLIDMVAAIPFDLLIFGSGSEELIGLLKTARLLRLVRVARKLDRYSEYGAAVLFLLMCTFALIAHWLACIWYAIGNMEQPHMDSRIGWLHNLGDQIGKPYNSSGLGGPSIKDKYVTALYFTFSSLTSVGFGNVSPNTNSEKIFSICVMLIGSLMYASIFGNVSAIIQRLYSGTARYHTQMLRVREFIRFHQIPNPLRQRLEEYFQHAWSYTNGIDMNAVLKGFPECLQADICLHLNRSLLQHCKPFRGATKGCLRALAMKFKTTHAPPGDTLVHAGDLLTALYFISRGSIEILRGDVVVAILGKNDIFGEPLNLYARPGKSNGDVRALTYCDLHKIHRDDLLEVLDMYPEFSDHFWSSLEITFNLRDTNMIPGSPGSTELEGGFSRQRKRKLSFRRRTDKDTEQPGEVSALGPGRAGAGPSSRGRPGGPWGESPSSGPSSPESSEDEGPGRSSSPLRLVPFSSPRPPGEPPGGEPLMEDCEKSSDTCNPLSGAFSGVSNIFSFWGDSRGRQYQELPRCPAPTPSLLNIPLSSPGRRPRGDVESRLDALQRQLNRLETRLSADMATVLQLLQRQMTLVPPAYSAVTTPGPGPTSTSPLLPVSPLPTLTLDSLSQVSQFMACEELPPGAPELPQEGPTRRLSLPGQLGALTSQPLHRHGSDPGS

SMILES	hERG current change (%, negative = inhibition) at 10uM
NC(=O)CC(c1ccccc1)c1ccco1 (centres unmarked)	19.8%
CCc1nnc(NS(=O)(=O)c2ccc(NC(=S)Nc3ccc(F)cc3)cc2)s1	13.1%
Fc1cccc(CSc2nc3ncc(Cl)cc3[nH]2)c1	15.9%
CC(=O)NN1C(=O)/C(=C\c2ccccc2)SC1=S	-7.01%
Cc1cc(C)nc(NCC(O)COc2ccccc2C)n1 (centres unmarked)	7%
CC(CCc1ccccc1)NC(=O)CN1C(=O)NC2(CCCCC2)C1=O (centres unmarked)	6.05%
O=C(/C=C/c1ccc([N+](=O)[O-])cc1)OCc1cnc(-c2ccccc2)o1	6.89%
COC(=O)c1ccccc1NC(=O)c1cc([N+](=O)[O-])nn1Cc1ccccc1	13%
CCN(CC)CCN(C(=O)c1cc2c(ccc3ccccc32)oc1=O)c1nc2cc3c(cc2s1)OCCO3.Cl	1.58%
Cc1ccc(S(=O)(=O)Nc2c(C)nc3nc(C)[nH]n3c2=O)cc1	19.9%
Nc1ccccc1C(=O)Nc1ccc(Cl)cc1Cl	12.4%
N=c1c2c3c(sc2ncn1N)CCCCC3	-12.6%
CC(=O)C1C(=O)c2c(cccc2[N+](=O)[O-])C1=Nc1cccc(Cl)c1 (centres unmarked)	-1.78%
Oc1ccccc1-c1csc(-c2ccccc2)n1	15%
CS(=O)(=O)c1sc(C#N)c2c1C(=O)CC(c1ccccc1)C2 (centres unmarked)	16.9%
COCCCN1C(=O)c2ccc(C(=O)Nc3ccc(C)cc3C)cc2C1=O	2.51%
Cc1ccccc1OCC(=O)N(Cc1nnc(-c2ccc(Cl)cc2)o1)C(C)C	-53.5%
CCC1(c2ccccc2)NC(=O)N(Cc2cccc([N+](=O)[O-])c2)C1=O (centres unmarked)	-38.8%
COc1cc(/C=N/NC(=S)NC(C)C)ccc1OCC(=O)Nc1c(C)cc(C)cc1C	9.83%
COc1cc(NC(=O)C2=C(C)OCCS2)c(Cl)cc1C(=O)NCCN(C)C	-3.65%
CC/C(=N\N1CCN(C)CC1)c1c(O)[nH]c(=O)[nH]c1=O	8.15%
O=C(CCn1c(=O)c2cccn2c2ccccc21)Nc1ccc(F)cc1	-16%
C[C@H](NC(=O)c1nc[nH]c1C(=O)N1CCN(c2ccccc2)CC1)C(=O)OCc1ccccc1	-2.19%

SMILES	hERG current change (%, negative = inhibition) at 10uM
Brc1cccc(-c2nnc3sc(CNCc4ccco4)cn23)c1	-60.3%
COc1ccc(C(CNC(=O)c2cc3c(s2)CCC(C)C3)N2CCCC2)cc1 (centres unmarked)	-57.7%
COc1ccc(NC(=O)c2cc(-c3ccccc3)nc3c2cnn3C(C)C)c(OC)c1	5.18%
COc1ccc(CC(C(=O)Nc2ccc(OC)cc2)c2nn[nH]n2)cc1 (centres unmarked)	20.2%
O=C(O)C1C2C=CC(C3CC23)C1C(=O)NCCc1ccccc1 (centres unmarked)	3.94%
COc1ccccc1C(=O)Nc1ccnn1C1CCN(Cc2ccccc2OCCO)CC1	-78.7%
CCc1ccccc1NC(=O)CSc1ncn[nH]1	9.18%
CC(=O)Nc1ccc(S(=O)(=O)NCC2CCC(C(=O)NCCCN3CCCC3=O)CC2)cc1 (centres unmarked)	-5.63%
Cc1cccc2c1NC(=O)C2(O)N1CCCC(C)C1 (centres unmarked)	15.9%
Cc1ccc(CNS(=O)(=O)c2ccc(C)s2)cc1	-2.79%
COC(=O)c1ccc(COC(=O)C2CCN(S(=O)(=O)c3c(Cl)cccc3Cl)CC2)o1	-7.62%
COc1ccc(CCNC(=O)C2CC3Cn4c(nc5ccccc54)C3N2C)cc1 (centres unmarked)	-8.64%
O=C(N/N=C/c1ccc(Cl)cc1Cl)c1ccncc1	-7.34%
COCCN(CC(=O)Nc1ccccc1C(F)(F)F)C(=O)c1ccc(-n2cccn2)cc1	-18.8%
CC1CCN(C(=O)Cn2nnc(-c3cccs3)n2)CC1	-0.924%
Cc1ccccc1NS(=O)(=O)c1ccc(C(=O)NN2CCCCC2)cc1	15.3%
Cl.O=C(CSC1=NCCN1)NC12CC3CC(CC(C3)C1)C2	-21.1%
C=CCn1c(C)cc(C(=O)COc2ncnc3sccc23)c1C	-6.15%
COc1ccc(CNC(=O)CCS(=O)(=O)Cc2ccc(C)cc2)c(OC)c1	-20.6%
O=P(O)(C(O)c1ccccc1)C(O)c1ccccc1 (centres unmarked)	0.999%
Cc1cc2cc(CNC(=O)c3ccc(S(=O)(=O)N4CCOCC4)cc3)ccc2[nH]1	6.35%
CC(NC(=O)Nc1ccccc1)C(c1cccs1)N1CCOCC1 (centres unmarked)	-3.94%
CC1CN(C(=O)c2cccc(S(=O)(=O)NCc3ccccc3)c2)CC(C)O1 (centres unmarked)	-6.85%

SMILES	hERG current change (%, negative = inhibition) at 10uM
COc1cccc(NC(=O)CCN2C(=O)c3ccc([N+](=O)[O-])cc3C2=O)c1	-6.47%
COc1ccccc1C(=O)N/C(=C/c1ccc2c(c1)OCO2)C(=O)Nc1cccc(C(=O)O)c1	-4.02%
Cc1cc(-c2cccc(Br)c2)c(C#N)c(N)n1	18.1%
COc1ccc(OC)c(NC(=O)C2C3C=CC(C3)C2C(=O)NCc2ccccn2)c1 (centres unmarked)	6.15%
COc1ccc(CC(=O)NCc2n[nH]c(=S)n2C)cc1	21.5%
COc1ccc(NC(=O)CN(C)C(=O)c2ccc(N3CCCC3)c([N+](=O)[O-])c2)cc1	-54%
COc1cccc(NC(=O)COC(=O)CC(NC(N)=O)c2ccc(Cl)cc2)c1 (centres unmarked)	-2.18%
CCOc1ccc(Oc2cc(C)nc(SC)n2)nn1	10.5%
CC(=O)c1ccc(N2CCN(CC(=O)Nc3ccc4c(c3)OCCO4)CC2)cc1	5.06%
COc1ccc(C(N)=O)c(OCC(=O)Nc2cc(C)on2)c1	3.75%
CC(C)(C)NC(=O)Cn1c(=O)c(=O)n(Cc2ccccc2)c2ccc(Cl)cc21	-0.233%
CC(=O)c1sc(NC(=O)c2cc(S(=O)(=O)N3CCOCC3)ccc2F)nc1C	-1.54%
Cc1nc(N)[nH]c(=O)c1Oc1cccc(C(F)(F)F)c1	6.79%
COc1ccc(Cl)cc1NC(=O)CN(C)C(=O)CSc1ccc2c(c1)OCCO2	-19.5%
O=C(OCCCOC(=O)c1ccc(Br)o1)c1ccc(Br)o1	-43.2%
O=S(=O)(NCCN1CCCC1)c1ccc(Cl)cc1	10.3%
COc1ccccc1OCC(=O)N/N=C1/SCC(=O)N1Cc1ccccc1	-18.6%
COc1ccc2c(C(=O)CN3CCN(c4ccccc4)CC3)c[nH]c2c1	-10.3%
COc1ccc(CCNC(=O)C2CCCN2C(=O)Nc2ccc(C)cc2)cc1OC (centres unmarked)	19.2%
O=C(/C=C/Nc1ccc(F)cc1)c1cccs1	7.59%
Nc1ccc2nc3c(=O)n(CCc4ccccc4)c(=O)[nH]c3nc2c1	-12.4%
COC(=O)c1cccc(CSC(=S)N2CCCC2)c1	-28.3%
O=C(COc1ccc([N+](=O)[O-])cc1)NCCc1nc2ccccc2[nH]1	-56.7%

SMILES	hERG current change (%, negative = inhibition) at 10uM
Cc1ccc(NCCC(=O)c2ccc(Cl)c(Cl)c2)cc1	-0.536%
CC(C)[N+]12CCC(CC1)C(C(O)(c1ccccc1)c1ccccc1)C2.[I-] (centres unmarked)	16.9%
CCOc1nc(C)ccc1-c1noc(-c2ccccn2)n1	6.02%
Cc1ccc(SCC(=O)NNC(=O)C2CCCCC2)cc1	-3.61%
Cn1c(=O)c2cc(S(=O)(=O)N3CCC(c4ccccc4)CC3)ccc2n(C)c1=O	-2.67%
Cc1ccc(-n2c(C)nn(CC#N)c2=O)cc1	18.7%
O=C(COC(=O)CCC1CCCC1)NCc1ccc(Cl)cc1	5.85%
Cc1c(NC(=O)C2CCCO2)cccc1[N+](=O)[O-] (centres unmarked)	9.31%
COc1cccc(CC(=O)OCC(=O)NC2(C#N)CCCCC2)c1	16.5%
CC(C)(C)CN1CCNC(=O)C1CC(=O)NC1Cc2ccccc2C1 (centres unmarked)	4.08%
O=c1cnnc(Nc2cccc(F)c2)[nH]1	25.3%
O=Cc1ccc(Oc2ccc(F)cc2)nc1	11.1%
CCOc1cc(S(=O)(=O)NCCc2ccc(OC)c(OC)c2)c(OCC)cc1-n1cnnn1	2.67%
Cc1ccc2nc(-c3ccc(NC(=O)CN4C(=O)c5ccccc5C4=O)cc3)sc2c1	-0.222%
O=C(c1ccccc1F)N1CCN(c2ccc([N+](=O)[O-])c3cccnc23)CC1	-65.5%
CCC[C@H](CN[C@@H](CNC)[C@H](C)O)NCCc1ccc(OC)cc1	2.16%
O=C(CCN1C(=O)c2cccc3cccc(c23)C1=O)NC1CCS(=O)(=O)C1 (centres unmarked)	2.16%
CCC(=O)N(Cc1cc2cc(OC)ccc2[nH]c1=O)c1cccc(C)c1	-20.6%
O=[N+]([O-])c1cccc(-n2nnnc2CN2CCCCCC2)c1	-28.5%
Cc1nn(Cc2ccccc2)c2c1C(c1cccc(Cl)c1)C(C#N)=C(N)O2 (centres unmarked)	0.533%
